Results on 10 variants are retold here after the supplement of paper PMC12217912.

The labels stand for the following.
B1: TEV protease; numbered along this chain (parent)
chain: MGESLFKGPRDYNPISSSICHLTNESDGHTTSLYGIGFGPFIITNKHLFRRNNGTLVVQSLHGVFKVKDTTTLQQHLVDGRDMIIIRMPKDFPPFPQKLKFREPQREERICLVTTNFQTKSMSSMVSDTSCTFPSGDGIFWKHWIQTKDGQCGSPLVSTRDGFIVGIHSASNFTNTNNYFTSVPKNFMELLTNQEAQQWVSGWRLNADSVLWGGHKVFMVKPEEPFQPVKEATQL

Variants of B1 are the subject of this assay. The assay can be described thus: raw area under fraction-flipped curve 0-4 h after induction (AUC4h, not background-subtracted), DNA-recorder readout of cleavage of the substrate (dimensionless); higher = more cleavage of the substrate by the protease variant. The following applies: temperature: 34 °C; time window: 0-4 h after rhamnose induction. As for the experimental part: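 In vivo DNA recorder in E. coli TOP10(DE3) ΔrhaA at 34 °C. Each TEVp single-site mutant (parent TEVp 0) is paired with a single-site variant of the 7-mer TEVs (canonical ENLYFQ|S). The substrate sits between flexible linkers in a Bxb1-sfGFP-TEVs-SsrA fusion, so cleavage stabilises Bxb1 and speeds flipping of a recombination array, read by NGS. The value is the raw area under the fraction-flipped curve over 0-4 h after rhamnose induction (AUC4h), with ≥20 reads per time point. It is not background-subtracted; inactive controls average about 0.047.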

The other results are listed elsewhere or left out. Sequences were assembled here from the parent chain. Values near 0.05 are background.
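Note: Bxb1 expression induced with 0.2% (w/v) L-rhamnose at OD600 near 0.5, cultures sampled hourly, flipped fraction per protease–substrate barcode pair counted by paired-end Illumina sequencing.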

MGESLFKGPRDYNPISSSICHLTNESDGHTTSLYGIGFGPFIITNKHLFRRNNGTLVVQSLHGVFKVKDTTTLQQHLVDGRDMIIIRMPKDFPPFPQKLKFREPQREERICLVTTNFQTKSMSSMVSDTSCTFPSGDGIDWKHWIQTKDGQCGSPLVSTRDGFIVGIHSASNFTNTNNYFTSVPKNFMELLTNQEAQQWVSGWRLNADSVLWGGHKVFMVKPEEPFQPVKEATQL [F140D]: the “area with substrate EALYFQS” value came out at 0.0313, the “area with substrate ECLYFQS” value amounted to 0.0528, the “area with substrate EDLYFQS” value worked out at 0.0654 and the “area with substrate EELYFQS” value worked out at 0.0067. For the same variant, the “area with substrate EFLYFQS” value was determined as 0.0587, the “area with substrate EGLYFQS” value came out at 0.066, the “area with substrate EHLYFQS” value came to 0.0688 and the “area with substrate EILYFQS” value amounted to 0.0616. For the same variant, the “area with substrate EKLYFQS” value came out at 0.0541, the “area with substrate ELLYFQS” value is 0.047, the “area with substrate EMLYFQS” value worked out at 0.0556 and the “area with substrate EPLYFQS” value is 0.0717. Moreover, the “area with substrate EQLYFQS” value came to 0.0619, the “area with substrate ERLYFQS” value came out at 0.0897, the “area with substrate ESLYFQS” value stood at 0.0493 and the “area with substrate EVLYFQS” value was 0.0563.

As for MGESLFKGPRDYNPISSSICHLTNESDGHTTSLYGIGFGPFIITNKHLFRRNNGTLVVQSLHGVFKVKDTTTLQQHLVDGRDMIIIRMPKDFPPFPQKLKFREPQREERICLVTTNFQTKSMSSMVSDTSCTFPQGDGIFWKHWIQTKDGQCGSPLVSTRDGFIVGIHSASNFTNTNNYFTSVPKNFMELLTNQEAQQWVSGWRLNADSVLWGGHKVFMVKPEEPFQPVKEATQL [S135Q], the “area with substrate EALYFQS” value was determined as 0.0589, the “area with substrate ECLYFQS” value is 0.0931, the “area with substrate EDLYFQS” value is 0.0997 and the “area with substrate EELYFQS” value worked out at 0.0959. The “area with substrate EGLYFQS” value came out at 0.0675, the “area with substrate EILYFQS” value was 0.0697, the “area with substrate EKLYFQS” value is 0.0678 and the “area with substrate EPLYFQS” value was 0.0936. Moreover, the “area with substrate EQLYFQS” value worked out at 0.0678, the “area with substrate ESLYFQS” value stood at 0.0759, the “area with substrate ETLYFQS” value was determined as 0.0671 and the “area with substrate EVLYFQS” value was found to be 0.0678.

In the case of MGESLFKGPRDYNPISSSICHLTNESDGHTTSLYGIGFGPFIITNKHLFRRNNGTLVVQSLHGVFKVKDTTTLQQHLVDGRDMIIIRMPKDFPPFPQKLKFREPQREERICLVTTNFQTKSMSSMVSDTSCTFPSGDGIFWKTWIQTKDGQCGSPLVSTRDGFIVGIHSASNFTNTNNYFTSVPKNFMELLTNQEAQQWVSGWRLNADSVLWGGHKVFMVKPEEPFQPVKEATQL [H143T], the “area with substrate EALYFQS” value came to 0.0973, the “area with substrate ECLYFQS” value turned out to be 0.0759, the “area with substrate EDLYFQS” value was found to be 0.0929 and the “area with substrate EILYFQS” value amounted to 0.0793. Moreover, the “area with substrate EMLYFQS” value came to 0.0855, the “area with substrate ERLYFQS” value was determined as 0.116, the “area with substrate ESLYFQS” value worked out at 0.074 and the “area with substrate ETLYFQS” value was determined as 0.0896. The “area with substrate EVLYFQS” value turned out to be 0.0781.

As for MGESLFKGPRDYNPISSSICHLTNESDGHTTSLYGIGFGPFIITNKHLFRRNNGTLVVQSLHGVFKVKDTTTLQQHLVDGRDMIIIRMPKDFPPFPQKLKFREPQREERICLVTTNFQTKSMSSMVSDTSCTFPSGDGIFWKIWIQTKDGQCGSPLVSTRDGFIVGIHSASNFTNTNNYFTSVPKNFMELLTNQEAQQWVSGWRLNADSVLWGGHKVFMVKPEEPFQPVKEATQL [H143I], the “area with substrate EALYFQS” value turned out to be 0.0774, the “area with substrate ECLYFQS” value was determined as 0.0652, the “area with substrate EELYFQS” value came to 0.0653 and the “area with substrate EKLYFQS” value was determined as 0.0508. Besides, the “area with substrate EMLYFQS” value turned out to be 0.082, the “area with substrate EPLYFQS” value stood at 0.064, the “area with substrate EQLYFQS” value was found to be 0.0706 and the “area with substrate EVLYFQS” value was found to be 0.0554. The “area with substrate EWLYFQS” value came out at 0.0749.

Regarding MGESLFKGPRDYNPISSSICHLTNESDGHTTSLYGIGFGPFIITNKHLFRRNNGTLVVQSLHGVFKVKDTTTLQQHLVDGRDMIIIRMPKDFPPFPQKLKFREPQREERICLVTTNFQTKSMSSMVSDTSCTFPSGDGDFWKHWIQTKDGQCGSPLVSTRDGFIVGIHSASNFTNTNNYFTSVPKNFMELLTNQEAQQWVSGWRLNADSVLWGGHKVFMVKPEEPFQPVKEATQL [I139D], the “area with substrate EALYFQS” value stood at 0.12, the “area with substrate ECLYFQS” value came out at 0.0948, the “area with substrate EDLYFQS” value turned out to be 0.115 and the “area with substrate EELYFQS” value came out at 0.13. Further, the “area with substrate EFLYFQS” value turned out to be 0.1, the “area with substrate EILYFQS” value stood at 0.0726, the “area with substrate EKLYFQS” value amounted to 0.117 and the “area with substrate EPLYFQS” value came to 0.0719. Further, the “area with substrate EQLYFQS” value was 0.134, the “area with substrate ESLYFQS” value was found to be 0.104, the “area with substrate ETLYFQS” value is 0.112 and the “area with substrate EVLYFQS” value turned out to be 0.122. Moreover, the “area with substrate EYLYFQS” value was determined as 0.103.

With MGESLFKGPRDYNPISSSICHLTNESDGHTTSLYGIGFGPFIITNKHLFRRNNGTLVVQSLHGVFKVKDTTTLQQHLVDGRDMIIIRMPKDFPPFPQKLKFREPQREERICLVTTNFQTKSMSSMVSDTSCTFPSGDGHFWKHWIQTKDGQCGSPLVSTRDGFIVGIHSASNFTNTNNYFTSVPKNFMELLTNQEAQQWVSGWRLNADSVLWGGHKVFMVKPEEPFQPVKEATQL [I139H], the “area with substrate EALYFQS” value is 0.117, the “area with substrate ECLYFQS” value stood at 0.0988, the “area with substrate EDLYFQS” value was 0.128 and the “area with substrate EELYFQS” value came out at 0.12. The “area with substrate EFLYFQS” value came out at 0.105, the “area with substrate EGLYFQS” value was determined as 0.0884, the “area with substrate EILYFQS” value amounted to 0.119 and the “area with substrate EMLYFQS” value came to 0.101. Further, the “area with substrate ERLYFQS” value came to 0.0865, the “area with substrate ESLYFQS” value was 0.116, the “area with substrate EVLYFQS” value was 0.0814 and the “area with substrate EYLYFQS” value came to 0.106.

Regarding MGESLFKGPRDYNPISSSICHLTNESDGHTTSLYGIGFGPFIITNKHLFRRNNGTLVVQSLHGVFKVKDTTTLQQHLVDGRDMIIIRMPKDFPPFPQKLKFREPQREERICLVTTNFQTKSMSSMVSDTSCTFPSGDGEFWKHWIQTKDGQCGSPLVSTRDGFIVGIHSASNFTNTNNYFTSVPKNFMELLTNQEAQQWVSGWRLNADSVLWGGHKVFMVKPEEPFQPVKEATQL [I139E], the “area with substrate EALYFQS” value was determined as 0.116, the “area with substrate ECLYFQS” value came out at 0.114, the “area with substrate EDLYFQS” value came to 0.137 and the “area with substrate EFLYFQS” value worked out at 0.107. Also, the “area with substrate EGLYFQS” value amounted to 0.131, the “area with substrate EILYFQS” value was found to be 0.108, the “area with substrate EQLYFQS” value is 0.122 and the “area with substrate ESLYFQS” value amounted to 0.114. For the same variant, the “area with substrate EWLYFQS” value amounted to 0.0963.

Turning to MGESLFKGPRDYNPISSSICHLTNESDGHTTSLYGIGFGPFIITNKHLFRRNNGTLVVQSLHGVFKVKDTTTLQQHLVDGRDMIIIRMPKDFPPFPQKLKFREPQREERICLVTTNFQTKSMSSMVSDTSCTFPSGDGLFWKHWIQTKDGQCGSPLVSTRDGFIVGIHSASNFTNTNNYFTSVPKNFMELLTNQEAQQWVSGWRLNADSVLWGGHKVFMVKPEEPFQPVKEATQL [I139L], the “area with substrate EALYFQS” value stood at 0.138, the “area with substrate ECLYFQS” value turned out to be 0.0929, the “area with substrate EDLYFQS” value worked out at 0.129 and the “area with substrate EFLYFQS” value was 0.1. Moreover, the “area with substrate EGLYFQS” value stood at 0.154, the “area with substrate EHLYFQS” value was 0.123, the “area with substrate EILYFQS” value was 0.124 and the “area with substrate EKLYFQS” value is 0.109. In addition, the “area with substrate ELLYFQS” value is 0.103, the “area with substrate EPLYFQS” value is 0.136, the “area with substrate EQLYFQS” value came out at 0.114 and the “area with substrate ERLYFQS” value turned out to be 0.149. In addition, the “area with substrate ESLYFQS” value is 0.106, the “area with substrate ETLYFQS” value is 0.155, the “area with substrate EVLYFQS” value was 0.108 and the “area with substrate EWLYFQS” value came to 0.135.

MGESLFKGPRDYNPISSSICHLTNESDGHTTSLYGIGFGPFIITNKHLFRRNNGTLVVQSLHGVFKVKDTTTLQQHLVDGRDMIIIRMPKDFPPFPQKLKFREPQREERICLVTTNFQTKSMSSMVSDTSCTFPSGDDIFWKHWIQTKDGQCGSPLVSTRDGFIVGIHSASNFTNTNNYFTSVPKNFMELLTNQEAQQWVSGWRLNADSVLWGGHKVFMVKPEEPFQPVKEATQL [G138D]: the “area with substrate EALYFQS” value was found to be 0.104, the “area with substrate ECLYFQS” value worked out at 0.0811, the “area with substrate EDLYFQS” value amounted to 0.117 and the “area with substrate EELYFQS” value stood at 0.101. In addition, the “area with substrate EHLYFQS” value was determined as 0.113, the “area with substrate EILYFQS” value was 0.111 and the “area with substrate EKLYFQS” value came out at 0.0558.

In the case of MGESLFKGPRDYNPISSSICHLTNESDGHTTSLYGIGFGPFIITNKHLFRRNNGTLVVQSLHGVFKVKDTTTLQQHLVDGRDMIIIRMPKDFPPFPQKLKFREPQREERICLVTTNFQTKSMSSMVSDTSCTFPSGEGIFWKHWIQTKDGQCGSPLVSTRDGFIVGIHSASNFTNTNNYFTSVPKNFMELLTNQEAQQWVSGWRLNADSVLWGGHKVFMVKPEEPFQPVKEATQL [D137E], the “area with substrate EALYFQS” value is 0.115, the “area with substrate ECLYFQS” value came to 0.129, the “area with substrate EDLYFQS” value was 0.133 and the “area with substrate EELYFQS” value was 0.101. Also, the “area with substrate EGLYFQS” value is 0.141, the “area with substrate EILYFQS” value was found to be 0.0658, the “area with substrate ELLYFQS” value came to 0.0933 and the “area with substrate EMLYFQS” value stood at 0.121. Also, the “area with substrate EQLYFQS” value was 0.111, the “area with substrate ERLYFQS” value was 0.099 and the “area with substrate ESLYFQS” value is 0.0875.
